Test results: patent US20200085917A1 (UNIVERSITY OF PITTSBURGH OF THE COMMONWEALTH SYSTEM OF …, published 2020)

Legend:
Test in all cases: GST pull-down, LC-MS/MS
Suclg2_IPI:IPI00459487.3 = target: T1, Suclg2_IPI:IPI00459487.3 (mouse, UniProt Q9Z2I8 39-433)
T1 sequence (looked up): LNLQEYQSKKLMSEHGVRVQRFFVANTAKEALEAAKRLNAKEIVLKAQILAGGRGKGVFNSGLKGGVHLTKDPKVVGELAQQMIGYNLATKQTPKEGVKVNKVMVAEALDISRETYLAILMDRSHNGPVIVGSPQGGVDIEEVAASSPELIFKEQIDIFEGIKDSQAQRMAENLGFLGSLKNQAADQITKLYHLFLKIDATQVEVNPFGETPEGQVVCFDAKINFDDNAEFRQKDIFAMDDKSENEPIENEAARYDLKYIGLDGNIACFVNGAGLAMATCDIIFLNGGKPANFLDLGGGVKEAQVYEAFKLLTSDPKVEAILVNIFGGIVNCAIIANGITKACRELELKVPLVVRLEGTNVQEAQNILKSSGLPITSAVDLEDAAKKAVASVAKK

Echs1_IPI:IPI00454049.4 = target: T2, Echs1_IPI:IPI00454049.4 (mouse, UniProt Q8BH95 28-290)
T2 sequence (looked up): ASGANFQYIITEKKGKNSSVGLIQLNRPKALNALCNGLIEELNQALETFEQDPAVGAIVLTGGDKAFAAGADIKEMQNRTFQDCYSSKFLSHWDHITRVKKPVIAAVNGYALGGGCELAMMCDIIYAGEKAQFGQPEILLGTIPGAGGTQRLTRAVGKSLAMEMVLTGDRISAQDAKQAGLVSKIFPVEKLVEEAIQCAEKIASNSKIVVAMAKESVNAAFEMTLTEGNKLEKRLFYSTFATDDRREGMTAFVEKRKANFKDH

Asrgl1_IPI:IPI00223875.1 = target: T3, Asrgl1_IPI:IPI00223875.1 (mouse, UniProt Q8C0M9 1-326, limits assumed)
T3 sequence (looked up): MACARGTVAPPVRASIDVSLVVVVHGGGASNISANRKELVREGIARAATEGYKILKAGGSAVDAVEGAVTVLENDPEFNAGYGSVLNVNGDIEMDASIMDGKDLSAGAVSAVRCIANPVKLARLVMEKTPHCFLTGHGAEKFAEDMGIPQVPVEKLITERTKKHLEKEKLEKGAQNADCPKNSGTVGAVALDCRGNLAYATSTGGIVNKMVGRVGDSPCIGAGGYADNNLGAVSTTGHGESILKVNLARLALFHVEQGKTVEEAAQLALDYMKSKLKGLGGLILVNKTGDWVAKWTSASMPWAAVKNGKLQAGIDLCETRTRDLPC

Sfxn1_IPI:IPI00115454.3 = target: T4, Sfxn1_IPI:IPI00115454.3 (mouse, UniProt Q99JR1 2-322)
T4 sequence (looked up): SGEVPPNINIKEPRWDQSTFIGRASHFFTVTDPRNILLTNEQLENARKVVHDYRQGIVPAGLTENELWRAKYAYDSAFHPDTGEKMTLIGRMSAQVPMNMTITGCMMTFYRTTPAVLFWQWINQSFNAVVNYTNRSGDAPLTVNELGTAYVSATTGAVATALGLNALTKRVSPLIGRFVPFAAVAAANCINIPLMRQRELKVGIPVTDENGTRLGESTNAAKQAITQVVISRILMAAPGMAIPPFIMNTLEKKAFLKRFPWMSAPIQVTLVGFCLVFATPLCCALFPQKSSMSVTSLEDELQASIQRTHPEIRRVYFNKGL

Hsdl1_IPI:IPI00225301.1 = target: T5, Hsdl1_IPI:IPI00225301.1 (mouse, UniProt Q8BTX9 2-330)
T5 sequence (looked up): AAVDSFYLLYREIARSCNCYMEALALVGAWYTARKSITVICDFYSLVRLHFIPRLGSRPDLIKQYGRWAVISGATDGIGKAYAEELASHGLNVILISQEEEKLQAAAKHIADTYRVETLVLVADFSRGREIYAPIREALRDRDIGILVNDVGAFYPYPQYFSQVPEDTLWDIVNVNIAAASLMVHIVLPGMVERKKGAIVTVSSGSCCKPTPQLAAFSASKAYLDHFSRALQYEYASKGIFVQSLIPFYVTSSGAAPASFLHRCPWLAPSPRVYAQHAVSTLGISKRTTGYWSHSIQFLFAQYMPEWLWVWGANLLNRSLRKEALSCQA

Coq3_IPI:IPI00467124.2 = target: T6, Coq3_IPI:IPI00467124.2 (mouse, UniProt Q8BMS4 87-370, limits assumed)
T6 sequence (looked up): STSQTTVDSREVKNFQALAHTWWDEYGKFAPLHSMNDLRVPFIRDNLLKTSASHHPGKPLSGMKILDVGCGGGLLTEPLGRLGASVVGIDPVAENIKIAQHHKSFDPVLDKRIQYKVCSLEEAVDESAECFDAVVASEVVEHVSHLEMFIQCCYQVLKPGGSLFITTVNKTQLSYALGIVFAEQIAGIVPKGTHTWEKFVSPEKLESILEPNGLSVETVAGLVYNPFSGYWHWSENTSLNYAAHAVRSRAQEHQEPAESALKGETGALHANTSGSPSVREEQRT

Rhot1_IPI:IPI00123186.4 = Rhot1_IPI:IPI00123186.4 (mouse, UniProt Q8BG51 1-631, limits assumed)
Sequence of Rhot1_IPI:IPI00123186.4 (Q8BG51 whole entry): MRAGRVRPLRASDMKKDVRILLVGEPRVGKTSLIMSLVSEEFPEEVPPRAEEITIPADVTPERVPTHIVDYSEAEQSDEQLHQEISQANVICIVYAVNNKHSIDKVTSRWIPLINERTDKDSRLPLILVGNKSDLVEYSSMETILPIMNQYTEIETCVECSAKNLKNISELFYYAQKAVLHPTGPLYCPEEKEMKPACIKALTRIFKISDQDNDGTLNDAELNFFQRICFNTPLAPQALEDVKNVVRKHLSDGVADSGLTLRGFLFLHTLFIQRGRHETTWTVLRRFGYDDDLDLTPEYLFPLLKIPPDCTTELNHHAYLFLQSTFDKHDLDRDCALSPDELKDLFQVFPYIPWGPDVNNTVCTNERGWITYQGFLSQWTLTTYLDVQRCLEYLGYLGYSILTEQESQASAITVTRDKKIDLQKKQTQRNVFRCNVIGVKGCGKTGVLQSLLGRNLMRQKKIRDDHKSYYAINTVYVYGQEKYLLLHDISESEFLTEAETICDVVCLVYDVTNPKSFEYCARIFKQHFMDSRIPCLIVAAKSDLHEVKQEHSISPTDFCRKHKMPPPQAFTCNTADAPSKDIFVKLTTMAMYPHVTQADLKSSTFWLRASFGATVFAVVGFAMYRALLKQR
mt-Co2_IPI:IPI00131176.1 = mt-Co2_IPI:IPI00131176.1 (mouse, UniProt P00405 1-227)
Sequence of mt-Co2_IPI:IPI00131176.1 (P00405 whole entry): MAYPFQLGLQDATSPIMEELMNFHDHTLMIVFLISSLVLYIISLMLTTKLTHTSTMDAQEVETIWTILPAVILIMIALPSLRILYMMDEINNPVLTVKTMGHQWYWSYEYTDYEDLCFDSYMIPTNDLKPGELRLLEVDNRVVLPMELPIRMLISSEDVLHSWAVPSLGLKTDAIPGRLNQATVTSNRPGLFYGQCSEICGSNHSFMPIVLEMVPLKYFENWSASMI

Measured: binding result

B1: GST alone (other)
chain: not shown
notes: Negative control of the pull-downs; also called control GST
no binding: Suclg2_IPI:IPI00459487.3 | Echs1_IPI:IPI00454049.4 | Asrgl1_IPI:IPI00223875.1 | Sfxn1_IPI:IPI00115454.3 | Hsdl1_IPI:IPI00225301.1 | Coq3_IPI:IPI00467124.2 | Rhot1_IPI:IPI00123186.4 | mt-Co2_IPI:IPI00131176.1
